PubChem BioAssay AID686979 (National Center for Advancing Translational Sciences (NCATS), 2013)
“And” between values parts separate entries of the source, which are not always exact repeats. Identical values can stand only once. Out of some 420,000 compounds screened, about 50,000 (12%) were called active. This list was built around the results that the source calls inconclusive (neither active nor inactive); the mix of calls is not that of the screen. The call rests on the fitted dose curve; in most records, active means well fitted inhibition curve with a large enough effect; inconclusive means small, poorly fitted or top-dose-only effect; inactive means flat fitted curve, though single readings scatter. Potencies of inconclusive entries are doubtful fits and often do not repeat.

Test: qHTS for Inhibitors of human tyrosyl-DNA phosphodiesterase 1 (TDP1): qHTS in cells in presence of CPT; further: nearly all actives have a fitted effect of over 55% in size
Conditions: chicken DT40 Tdp1-/-;hTDP1 cells + 20 nM CPT, ATP luminescence, 48 h; activity change, negative = growth inhibition: at 46.2 µM (top of the series)
Outline: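 Chicken DT40 Tdp1-/- cells complemented with human TDP1, 400 cells/well, exposed to compounds plus 20 nM camptothecin for at least 48 h at 37 C; viability read as ATP content by CellTiter-Glo luminescence.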
On the % scale 0 is the no-effect control and ±100 the full control effect; potency means the concentration at half of the fitted maximal effect; tags describe the fitted curve by direction and shape.

Compound	activity change, negative = growth inhibition	Potency
Cc1ccc(OCC(=O)OCCN2C(=O)c3ccccc3C2=O)cc1C	inactive: -24.6%	
COc1ccc(-c2cc(-c3ccccc3)nc(NN)n2)cc1OC		active: 3.66 µM
CCOC(=O)C1CCCN(C(=O)c2ccc(S(=O)(=O)NCc3ccco3)cc2)C1 (centres undefined)		inconclusive: 23.1 µM [inhibitor, partial curve, poor fit]
COc1ccc(NC(=O)CN2C(=O)/C(=C3\SC(=S)N(C4CCS(=O)(=O)C4)C3=O)c3ccccc32)cc1 (centres undefined)		active: 9.2 µM
CC(Nc1nc(-c2ccc(F)cc2)cs1)c1nc2cc(C(F)(F)F)ccc2n1CCOCCO (centres undefined)		inconclusive: 20.6 µM [inhibitor, single point]
COc1ccc2[nH]c(-c3cccc(F)c3)cc(=O)c2c1		active: 0.326 µM
O=[N+]([O-])c1ccc(N/N=C/c2cn(Cc3ccc(F)cc3)c3ccccc23)nc1		inconclusive: 29.1 µM [inhibitor, single point]
COc1ccc(CNC/C=C/c2ccccc2)cc1		inconclusive: 29.1 µM [inhibitor, single point]
O=C(CC1NC(=S)NC1=O)c1ccc(Cl)cc1 (centres undefined)	inactive: -8.79%	
CCn1ccnc1CN(C)C(=O)c1cc(COc2ccccc2SC)on1		inconclusive: 29.1 µM [inhibitor, single point]
O=C(NC(CO)C(=O)OCc1ccccc1)OCc1ccccc1 (centres undefined)		inconclusive: 29.1 µM [inhibitor, single point]
COc1ccc(NC(=O)CN(C)C(=O)c2ccccc2Sc2ncnc3sc(C)c(C)c23)cc1		inconclusive: 18.4 µM [inhibitor, single point]
CCC(=O)N(CCC(Cc1ccccc1)c1ccco1)Cc1ccco1 (centres undefined)		active: 18.4 µM
CCCn1c2ccccc2c2cnn(CC(=O)Nc3cc(OC)c(OC)c(OC)c3)c(=O)c21		inconclusive: 29.1 µM [inhibitor, single point]
O=C(c1cnn2c1NC(=C1CC1)C=C2C(F)F)N1CCc2ccccc2C1		inconclusive: 35.5 µM [inhibitor, single point]
Cc1ccc(N2CCN(C(=O)Cn3ncc4c([nH]c5ccc(C)cc54)c3=O)CC2)c(C)c1	inactive: -24.9%	
Cc1ccc(/C=N/N2CCN(c3ccncc3S(=O)(=O)N3CCCCC3)CC2)cc1		inconclusive: 29.1 µM [inhibitor, single point]
CCCCNC(=O)C1(C)CCCCN1Cc1ccc2ccccc2c1 (centres undefined)		active: 23.1 µM
COC(=O)c1c(-c2ccc(C)cc2)csc1NC(=S)NC(=O)c1ccc(F)cc1		inconclusive: 7.31 µM [inhibitor, partial curve]
CCCCNC(=O)C1(C)CCCCN1C(=O)c1c(F)ccc(C)c1F (centres undefined)	inactive: 2.26%	
OCCC1CN(CCCc2ccccc2)CCN1CCc1ccccc1 (centres undefined)		inconclusive: 29.1 µM [inhibitor, single point]
CCOC(=O)c1ccc(NS(=O)(=O)c2cc3c(cc2C)NC(=O)CO3)cc1	inactive: -12.3%	
O=C(c1cc(Cl)ccc1Cl)N1CCc2ccccc21		inconclusive: 29.1 µM [inhibitor, single point]

Compound	activity change, negative = growth inhibition	Potency
CCOc1ccc(C(=O)NCCc2csc(-c3cccc(C)c3)n2)cc1		inconclusive: 23.1 µM [inhibitor, single point]
CC(C)CC(=O)Nc1nnc(S(=O)(=O)N2c3ccccc3CC2C)s1 (centres undefined)		inactive
CCc1nc2ccc(C(=O)N3CCN(c4cccc(Cl)c4)CC3)cc2nc1CC		inactive and inconclusive: 29.1 µM [inhibitor, single point]
CC(C)c1ccc(Nc2sc(C(=O)c3ccccc3)c(N)c2S(=O)(=O)c2ccccc2)cc1		inconclusive: 23.1 µM [inhibitor, single point]
COc1cccc(-c2nc(CS(=O)CC(=O)NCc3ccc(F)cc3)c(C)o2)c1 (centres undefined)		inconclusive: 23.1 µM [inhibitor, single point]
COC(=O)c1cc2c(-c3ccccc3)c(C)c3ccccn3c-2c1C(=O)OC		inconclusive: 29.1 µM [inhibitor, single point]
CCC1(C)CC(=O)c2c(ccc3oc(C(=O)Nc4ccc(C(C)=O)cc4)c(C)c23)O1 (centres undefined)		inconclusive: 10.3 µM [inhibitor, partial curve]
CCOC(=O)C1(CC2CCCCO2)CCN(Cc2c(C)cc(C)cc2-n2cccn2)CC1 (centres undefined)		inconclusive: 29.1 µM [inhibitor, single point]
O=C(CCC(=O)N1CCOc2ccc(Cl)cc21)NCCCN1CCN(Cc2ccccc2)CC1		inconclusive: 18.4 µM [inhibitor, partial curve]
C=C(C)c1cccc(C(C)(C)NC(=O)N2CCCC(C(N)=O)C2)c1 (centres undefined)	inactive: -0.839%	
CCCNC(=O)C1(CC2CC(c3ccccc3)=NO2)CCN(C(=O)c2cc(OCC)c(OCC)c(OCC)c2)CC1 (centres undefined)		inconclusive: 29.1 µM [inhibitor, single point]
COc1cc(NC(=O)c2ccno2)cc(C(=O)Nc2cccc(C(F)(F)F)c2)c1		inconclusive: 29.1 µM [inhibitor, single point]
CCOc1ccc(CCNC(=O)CCCn2c(=O)c3cccn3c3cccnc32)cc1		inconclusive: 14.6 µM [inhibitor, single point]
CC1CC(C)(C)CC2(C1)NC(=O)N(CC(=O)N(C)Cc1nc3ccccc3c(=O)[nH]1)C2=O (centres undefined)	inactive: -25.4%	
COc1cccc(CNC(=O)[C@@H]2CCCN2C(=O)[C@H]2CCCCN2C(=O)c2cccc(Cl)c2)c1	inactive: 5.75%	
CCc1ccc(C(=O)COC(=O)C(NC(=O)C2CCC(C)CC2)C(C)C)cc1 (centres undefined)	inactive: -18.7%	
O=C(O)CCCC(=O)N1N=C(c2ccco2)CC1c1ccco1 (centres undefined)	inactive: 0.547%	
CCOC(=O)c1cnc2ccc(OCC)cc2c1NCc1ccccc1OC		active: 5.17 µM
Nc1sc(-c2ccccc2)cc1C(=O)N1CCN(c2ccccc2)CC1		inconclusive: 29.1 µM [inhibitor, single point]
O=C(Nc1nc2ccccc2[nH]1)c1ccc(F)cc1	inactive: -28.9%	
CCOC(=O)CC(=O)CSc1nc2ccc(C)cc2cc1C#N		active: 1.16 µM
O=C(CN1C(=O)NC2(CCCCC2)C1=O)N1CCN(S(=O)(=O)c2ccc(F)c(F)c2F)CC1		inconclusive: 29.1 µM [inhibitor, single point]
COc1ccc(C(=O)CCC(=O)Nc2ccc(Cl)cc2)cc1	inactive: 1.8%	

Compound	activity change, negative = growth inhibition	Potency
NS(=O)(=O)c1ccc(CCNC(=O)/C=C/c2ccc([N+](=O)[O-])cc2)cc1		inconclusive: 13 µM [inhibitor, partial curve]
S=C(NCc1ccccn1)Nc1ccc(Cl)cc1		inconclusive: 29.1 µM [inhibitor, single point]
CCOCCOC(=O)c1ccc2c(c1)N(Cc1ccccc1C#N)C(=O)c1ccccc1S2(=O)=O		inconclusive: 14.6 µM [inhibitor, partial curve]
S=C(Nc1ccccc1)N1CCN(Cc2ccccc2)CC1	inactive: -5.79%	
COc1ccc(CNc2nc(-c3cccnc3)nn2C(=O)C(C)C)cc1		inconclusive: 18.4 µM [inhibitor, single point]
COc1ccc(-c2cc3ccc(O)c(CN4CCN(C)CC4)c3oc2=O)cc1OC		inconclusive: 25.9 µM [inhibitor, single point]
O=C(NCC(O)c1ccccc1)c1cccs1 (centres undefined)	inactive: -1.8%	
COc1cc(CNC(=O)c2cnc3c(-c4cccc(C)c4)c(C)nn3c2C)cc(OC)c1OC		active: 11.6 µM
Cc1ccccc1-c1nc(-c2ccccn2)no1		inconclusive: 14.6 µM [inhibitor, partial curve]
CCC(CO)Oc1cc(NC(=O)c2ccc(OC)cc2)c2ncn(C(C)C)c2c1 (centres undefined)		active: 18.4 µM
CC(C)Oc1cc(F)ccc1-c1cc(C(=O)NCCCn2ccnc2)[nH]n1		inconclusive: 29.1 µM [inhibitor, partial curve, poor fit]
CNS(=O)(=O)c1cc(C(=O)O)ccc1OC		inconclusive: 25.9 µM [inhibitor, single point]
Cc1ccc(S(=O)(=O)N(C)c2ccc(OCC(=O)Nc3nc4c(ccc5ccccc54)s3)cc2)cc1		inconclusive: 11.6 µM [inhibitor, partial curve, poor fit]
Cc1ccc(-c2nc(S(=O)(=O)c3ccc(C)cc3)c(N(C)C)o2)cc1		inconclusive: 29.1 µM [inhibitor, single point]
O=C(c1noc2c1CCCC2)N1CCc2ccccc2C1		inconclusive: 29.1 µM [inhibitor, single point]
CN(CC(=O)Nc1ccc(OC(F)(F)F)cc1)C(=O)Cc1cccs1		inconclusive: 18.4 µM [inhibitor, single point]
Cc1ccc(-c2ccc(C3C(C#N)=C(N)Oc4n[nH]c(C)c43)o2)cc1 (centres undefined)		inconclusive: 29.1 µM [inhibitor, single point]
COc1cccc(NC(=O)Cn2nnc(-c3ccccc3N)n2)c1	inactive: -18.4%	
O=C(Nc1ccccc1C(F)(F)F)N1CCCCCC1	inactive: -4.22%	
CC(C)N1CCc2c(sc(NC(=O)c3ccc4ccccc4c3)c2C(N)=O)C1		active: 14.6 µM
O=S(=O)(NCc1ccco1)c1ccc(Cl)cc1Cl		inconclusive: 23.1 µM [inhibitor, single point]
COc1ccc(/C=N/n2cnc3c([nH]c4ccccc43)c2=O)cc1CO		inconclusive: 25.9 µM [inhibitor, single point]
Cc1ccc(NC(=O)C2COc3ccccc3O2)cc1S(=O)(=O)N1CCOCC1 (centres undefined)		inconclusive: 18.4 µM [inhibitor, single point]
